# Among all 310,000 compounds or so, about 11,000 (3.5%) were called active. The shares of active, inactive and inconclusive entries below differ from those in the screen. The call rests on the fitted dose curve; in most records, active means well fitted inhibition curve with a large enough effect; inconclusive means small, poorly fitted or top-dose-only effect, or effect the other way; inactive means flat fitted curve, though single readings scatter. No potency is given beside an inconclusive call; the fits are too rough.
# Test: VP16 counterscreen qHTS for inhibitors of ROR gamma transcriptional activity;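 further: Gal4-VP16 expression switched on by copper sulfate through the metallothionein promoter; nearly all actives have a fitted effect of over 50% in size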
# Conditions: Drosophila S2 Gal4-VP16 UAS-luciferase, luminescence, 20 h; activity, negative = inhibition: at 53.6 µM (top of the series)
# On the % scale 0 is the no-effect control and ±100 the full control effect; potency means the concentration at half of the fitted maximal effect; tags describe the fitted curve by direction and shape.
Structure (SMILES),Potency,"activity, negative = inhibition"
CC(C)c1ccc(/C=N/NC(=O)C2CCCC2)cc1,"inconclusive [activator, single point]",
O=C(COc1ccc(OCc2ccccc2)cc1)NN=C1CCCC1,"inconclusive [inhibitor, partial curve, poor fit]",
CCCOc1ccc(N2C(=O)CC(N(Cc3ccccc3)N=O)C2=O)cc1 (stereo unspecified),"inconclusive [inhibitor, single point]",
OC(Cc1cccnc1)(Cc1cccnc1)c1cc2ccccc2[nH]1,inactive,
COC(=O)c1sccc1NC(=O)Nc1cccc(C)c1C,"inconclusive [activator, single point]",
O=C(C1CCN(S(=O)(=O)N2CCOCC2)CC1)N1CCN(Cc2ccc3c(c2)OCO3)CC1,inactive,
Cc1ccc(C)c(NC(=S)N2CCCC2)c1,"inconclusive [inhibitor, single point]",
CC(C)N1CCC(N2CCN(Cc3ccc(-c4ccc(Cl)cc4)o3)CC2CCO)CC1 (stereo unspecified),inactive,
CCOc1cc(/C=N/NC(N)=S)cc(Br)c1OCc1ccccc1C,active: 2.51 µM,
CC1CCN(CCCC(=O)c2ccc(F)cc2)CC1,inactive,
Cc1cc(NC(=O)COC(=O)C(Nc2ccc(C(F)(F)F)cc2Cl)C(C)C)no1 (stereo unspecified),"inconclusive [inhibitor, single point]",
CCOC(=O)C1CCN(C(=O)c2cc(OCC)c(OCC)c(OCC)c2)CC1,"inconclusive [inhibitor, single point]",
C=CCOC(=O)C1=C(C)OC(N)=C(C#N)C1c1ccc2c(c1)OCO2 (stereo unspecified),"inconclusive [inhibitor, single point]",
c1ccc(CCc2nn3c(Cc4ccccc4)nnc3s2)cc1,"inconclusive [inhibitor, single point]",
O=C(Nc1cccc(S(=O)(=O)N2CCCCC2)c1)c1ccc(S(=O)(=O)C(F)F)cc1,"inconclusive [inhibitor, single point]",
CCOc1ccc(NS(=O)(=O)c2c(C)nc3sccn3c2=O)cc1,inactive,
Cc1nc(C)c(C(=O)NNS(=O)(=O)c2ccc3ccccc3c2)s1,active: 1 µM,
Brc1ccc2ncnc(NCc3ccccc3)c2c1,"inconclusive [inhibitor, single point]",
Cc1cccc(C2=NC(C(F)(F)F)(C(F)(F)F)c3c(n(-c4ccc(F)cc4)c(=O)[nH]c3=O)N2)c1,inactive,
C=CCn1c(-c2ccc(Cl)cc2)cnc1SC(C)C(=O)NC(N)=O (stereo unspecified),,inactive: -3.94% [at 10 µM]
S=c1[nH]c2ccc(Cl)cc2s1,"inconclusive [inhibitor, single point]",
COc1ccc(OCC(O)CNS(=O)(=O)c2cccc(Cl)c2)cc1 (stereo unspecified),"inconclusive [inhibitor, partial curve]",
COc1ccccc1CNS(=O)(=O)CC12CCC(CC1=O)C2(C)C (stereo unspecified),"inconclusive [inhibitor, partial curve]",
COc1ccc(N2CCN(CCCNC(=S)Nc3c(C)cccc3C)CC2)cc1,"inconclusive [inhibitor, single point]",

Structure (SMILES),Potency,"activity, negative = inhibition"
O=C(N/N=C/c1ccsc1)c1cc(-c2cccs2)nc2ccccc12,active: 4.47 µM,
CC(C)CNC(=S)NC(=O)c1ccc(Cl)cc1,"inconclusive [inhibitor, single point]",
COc1ccc(NS(=O)(=O)c2ccc(OCC(=O)N3CCOCC3)cc2)cc1,inactive,
CCCCc1nn(-c2ccccc2C(F)(F)F)c(=O)n1Cc1ccc(-c2ccccc2S(=O)(=O)NC(=O)c2sccc2C)cc1,"inconclusive [inhibitor, single point]",
O=C(CSc1nnc(-c2cccnc2)n1Cc1ccco1)N1c2ccccc2Sc2ccccc21,"inconclusive [inhibitor, single point]",
Cc1ccc(NC(=O)CSc2nc3c(c(=O)[nH]2)CCCC3)cc1C,"inconclusive [inhibitor, single point]",
Cc1ccccc1NC(=O)c1cnc2ccccn2c1=O,"inconclusive [inhibitor, full curve]",
CC1SCC(=O)N(CC(=O)NCc2ccccc2)C1=O (stereo unspecified),"inconclusive [activator, full curve]",
O=C(CNS(=O)(=O)c1ccc(Br)s1)NCc1ccc(F)cc1,inactive,
Cc1c(N=C=O)cccc1N=C=O,inactive,
Cc1ccc(-c2cc(C(=O)N3CCN(c4ncccn4)CC3)c3cc(Br)ccc3n2)o1,"inconclusive [inhibitor, single point]",
Cc1ccc(-c2nc3ccccc3c(=O)n2NC(=O)COc2ccccc2)cc1,"inconclusive [inhibitor, single point]",
CC(C)(C)c1cc(C(=O)NCc2ccccc2)ccn1,"inconclusive [inhibitor, single point]",
Cc1ccc(-c2nn3c(C)nnc3s2)cc1NC(=O)c1cccs1,"inconclusive [inhibitor, single point]",
Cc1cc(Cl)ccc1C(=O)C1CCCN(C(=O)c2ccoc2)C1 (stereo unspecified),"inconclusive [inhibitor, single point]",
CCOC(=O)c1cc(-c2cc(OC)c(OC)c(OC)c2)nc2c1c(=O)[nH]c(=O)n2Cc1ccccc1,inactive,
COCc1cc(=O)n2[nH]c(C)c(-c3ccccc3)c2n1,"inconclusive [inhibitor, single point]",
COc1ccc(NC(=S)Nc2ccc(N)c([N+](=O)[O-])c2)cc1,"inconclusive [inhibitor, single point]",
O=C(c1csnn1)N1CCC2(CCCN(c3ccccc3)C2)CC1,"inconclusive [activator, single point]",
Cc1cc2cc(CNC(=O)Cc3cccs3)ccc2n1C,inactive,
COc1ccccc1-c1noc(-c2ccccc2C(=O)NCc2ccco2)n1,,inactive: 0.619% [at 10 µM]
CCC(=O)N(CC)C1=C(O)c2ccccc2C(=O)C1=O,"inconclusive [inhibitor, single point]",
CCOc1ccc(-c2cn(-c3ccccc3OC)c(=S)[nH]2)cc1,active: 8.91 µM,
NS(=O)(=O)c1cccnc1Nc1cccc(Cl)c1Cl,"inconclusive [activator, partial curve]",

Structure (SMILES),Potency,"activity, negative = inhibition"
Cc1ccc(NC(=O)NC(=O)N(C2CCCCC2)S(=O)(=O)c2ccccc2)cc1,"inconclusive [activator, single point]",
COc1cccc(C2C=C(c3ccc(Br)s3)Nc3ncnn32)c1OC (stereo unspecified),"inconclusive [inhibitor, single point]",
Cc1ccc(-n2nc3c(N4CCC(C(=O)NCc5cccc(F)c5)CC4)nnc(C)c3c2C)cc1,"inconclusive [inhibitor, single point]",
Cc1cccc2cc(C(c3nnnn3CC3CCCO3)N3CCc4ccccc4C3)c(=O)[nH]c12 (stereo unspecified),inactive,
COc1ccc(S(=O)(=O)c2cnc3ccccc3n2)cc1,"inconclusive [inhibitor, single point]",
CC1=NC(=O)C(N=Nc2cccc(C(=O)O)c2)N1c1ccccc1 (stereo unspecified),active: 8.91 µM,
C[C@H]1C[C@]2(O[C@@H]2C)C(=O)O[C@@H]2CCN(C)C/C=C(/COC(=O)[C@]1(C)O)C2=O,inactive,
COc1cccc(CNC(=O)CCC2CCCN(C(=O)c3ccc(OC)o3)C2)c1 (stereo unspecified),"inconclusive [inhibitor, single point]",
COC(=O)Cn1c(=NC(=O)c2cc(-c3cccs3)nc3ccccc23)sc2cc(S(N)(=O)=O)ccc21,"inconclusive [inhibitor, partial curve]",
CCCCC(=O)Nc1ccc(NC(=O)c2ccc([N+](=O)[O-])cc2)cc1OC,"inconclusive [activator, partial curve]",
O=C(/C=C/c1cccs1)c1cc(Br)ccc1OC(=O)N1CCOCC1,"inconclusive [inhibitor, single point]",
COC(=O)C1=C(C)N(Cc2ccccc2)C(=S)N[C@H]1c1ccccc1,active: 15.8 µM,
Cc1ccc(-c2csc3ncnc(Nc4ccc(C(=O)O)cc4)c23)cc1,inactive,
COc1cccc(-c2c(C(=O)N/N=C/c3ccoc3)nnn2-c2nonc2N)c1,"inconclusive [inhibitor, single point]",
Cc1nc(NCc2cccnc2)c2c3c(sc2n1)CC(C)CC3 (stereo unspecified),active: 1.78 µM,
CCc1ccc(/C=N/NC(=O)c2nnn(-c3nonc3N)c2C(C)C)cc1,inactive,
Fc1ccc(-c2nc(-c3cnccn3)no2)c(Cl)c1,"inconclusive [inhibitor, partial curve, poor fit]",
CCC1CCCCN1CCCNC(=O)CCC(=O)N1CC(C)Oc2ccccc21 (stereo unspecified),inactive,
CC(C)Oc1cccc(C(=O)NC(=S)Nc2cccc(NC(=O)c3ccccc3Cl)c2)c1,active: 8.91 µM,
CCOc1c(Br)cc(/C=C2\C(=O)N(CCC#N)N=C2C)cc1OC,active: 11.2 µM,
CCOC(=O)C(=Cc1cc(=O)c(OC)co1)C(=O)OCC,active: 5.01 µM,
CC(C)(C)C(=O)Nc1cc(S(=O)(=O)Nc2ccc(Cl)cc2)ccc1Cl,"inconclusive [inhibitor, partial curve]",
C=C(C)CNC(=S)N1CCN(C(c2ccccc2)c2ccccc2)CC1,"inconclusive [inhibitor, single point]",

# Source: PubChem BioAssay AID2546 (National Center for Advancing Translational Sciences (NCATS), 2010)
